In the RNAGym collection of RNA variant scans (doi:10.1101/gad.245936.114):
Variants at the background level are over-represented here.

B1: tRNA (parent)
chain: CUCUCGGUAGCCAAGUUGGUUUAAGGCGCAAGACUUUAAUUUAUCACUACGAAAUCUUGAGAUCGGGCGUUCGACUCGCCCCCGGGAGAUUUUUUCCUCGAGCAA

Variants of: B1
Test: nonsense suppression (GFP-seq) (ratio to wild type); higher = more function; SUP4oc tRNA, yeast GFP reporter sort-seq
In short: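 Raffinose/galactose medium with 80 mg/L adenine was used to grow yeast carrying genome-integrated tRNA variants (~3% random-mutation library), RFP, and a galactose-driven GFP ochre reporter. Cells went into GFP/RFP bins, which were Illumina-sequenced, and variants with ≥100 reads and ≥30 cells were scored. Nonsense suppression (GFPSEQ) is the per-bin median GFP/RFP weighted by estimated cell share and expressed relative to the unmutated parent tRNA.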

Nonsense suppression, 0.174:
U21C C56U

Nonsense suppression, 1.23:
U21G A54U C75U

Nonsense suppression, 1.15:
U21C C82U

Nonsense suppression, 1.14:
U21C U22A

Nonsense suppression, 0.954:
U21C

Nonsense suppression, 0.154:
U21C C27U

Nonsense suppression, ≤ 0.026:
U21A U35A
U21A U35C C79U A87C
U21A U55A G59C C79A
U21A U55A G59C U63C
U21A U55A G61A C72G A74U
U21A U55C G61A G86C
U21A U55C U57G
U21A U57G
U21A U70A
U21C A23U A60G
U21C A23U G65U
U21C A24G A62C U70G
U21C A30G U57G
U21C A30G U70G
U21C A31C G78U
U21C A31G A74G G85A G88C
U21C A31G G85A G88C
U21C A33C C81G
U21C A33G G69A
U21C A54U U57C G59A A89U
U21C A60C C80U
U21C A74G
U21C C27A
U21C C29A A87G
U21C C34A
U21C C34A C64U
U21C C56G
U21C C56G G61U A62U
U21C C56G U70C C75G
U21C C64A
U21C C72G A89G
U21C C72U
U21C C75G U76G C79A C83A
U21C C79A
U21C G25A G26A
U21C G26C C27U C56A C79G G85A
U21C G26U C34U
U21C G67A G69C
U21C G69C
U21C G73U
U21C U22A U57G
U21C U22G G32C A62U
U21C U35A
U21C U35A C64G G66C C72G
U21C U35A C79U
U21C U35C
U21C U35G U57A C79A
U21C U58A C82A
U21C U58G C79A
U21C U70C
U21C U70C G85A
U21C U71A
U21C U76A
U21G A23C
U21G A23C C34G C68U
U21G A23G G69A C79U
U21G A23G U70C C77G A89U
U21G A24G
U21G A24G G61C
U21G A24G G61C G73A U76C G88C
U21G A30U C56A
U21G A31G C79A
U21G A33G
U21G A33G C34U G65C
U21G A33U U57C U58A
U21G A33U U57C U58A A89G
U21G A60C A74U
U21G A60G C77U C79U G85A
U21G A60G G66C
U21G A60G U70A C77G
U21G A62U G65A G85C
U21G A62U G78C

Nonsense suppression, 1.04:
U21G

Nonsense suppression, 0.0683:
U21G A24U

Nonsense suppression, 1.12:
U21C U63A

Nonsense suppression, 0.0269:
U21C G61A A62C

Nonsense suppression, 0.77:
U21G A31G
